Reference: paper PMC7819943, “Rice protein-binding microarrays: a tool to detect cis-acting elements near promoter regions in rice”
The list shows a part of the results.

What follows are sequences tested against T1, OsWOX13 (Oryza sativa, UniProt Q5QMM3 1-267) (assay: protein-binding microarray (RPBM); PBS, 2% BSA, 51.3 ng/ul salmon testes DNA, 50 uM zinc acetate, 200 nM TF, 25 C, 1 h; high values mean tight binding). Settings: protein: recombinant; tags: N-terminal polyhistidine and DsRed monomer fusion (pET32a); label: CyDye5-dUTP incorporated in the synthesized complementary strand; 3' TTTTT single-stranded linker to array surface; dsDNA, one strand shown.
T1 sequence: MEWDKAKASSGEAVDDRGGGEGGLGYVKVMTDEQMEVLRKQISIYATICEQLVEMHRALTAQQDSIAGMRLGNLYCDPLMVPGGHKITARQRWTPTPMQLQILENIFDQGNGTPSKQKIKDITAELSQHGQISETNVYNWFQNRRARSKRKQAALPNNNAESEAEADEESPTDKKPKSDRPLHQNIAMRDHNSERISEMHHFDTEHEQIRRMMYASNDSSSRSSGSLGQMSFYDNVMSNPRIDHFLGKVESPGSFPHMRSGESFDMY
Procedure, shortened: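 A custom Agilent array was converted to double-stranded form by primer extension with Cy5-dUTP and blocked with 2% BSA. Protein at 200 nM in PBS with 2% BSA, salmon testes DNA and 50 µM zinc acetate was applied for 1 h at 25 °C, followed by washing. The proteins were polyhistidine–DsRed N-terminal fusions of transcription factors, expressed in E. coli BL21-CodonPlus and Ni–NTA-purified. The binding signal is per-feature fluorescence intensity (arbitrary units) from an Axon 4000B scanner.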

Question: With “GCATTGATATGAACCATTGATTTGTTATCATGCAGTGCTACGGAGTCACCTAGTGCAG” as the sequence, how does the binding signal read?
Answer: 26400 fluorescence intensity (a.u.)

Question: For “AAATAGACAGTAGATAATATGTGGGAGGATAAATGACACACGGAGTCACCTAGTGCAG”, which binding signal is on record?
Answer: 4800 fluorescence intensity (a.u.)

Question: “ATGTTAAATAGATATATTTAGATTCATAATATTAGAACGTCGGAGTCACCTAGTGCAG” was tested. Which binding signal did it give?
Answer: 12300 fluorescence intensity (a.u.)

Question: With “TTAAATAATTGTTCGTGCTTCTGGCGTAAAGTATTGAAGTCGGAGTCACCTAGTGCAG” as the sequence, how does the binding signal read?
Answer: 12200 fluorescence intensity (a.u.)

Question: How did the binding signal turn out when “CCACTTAGATTAACATTGCTAGAAGCCGAGAACTCTGAAGCGGAGTCACCTAGTGCAG” was run?
Answer: 4410 fluorescence intensity (a.u.)

Question: “AGTAAATGGAAATTTTAATCTGCTACTCCCTTGCTTACTTCGGAGTCACCTAGTGCAG” was tested. Which binding signal did it give?
Answer: 20000 fluorescence intensity (a.u.)

Question: How did the binding signal turn out when “AACCTTGATGAGCATTTCTTAGAAAACATTTTCAATCGACCGGAGTCACCTAGTGCAG” was run?
Answer: 17100 fluorescence intensity (a.u.)

Question: For “TTCAAATCTATAATTTCATGTTTGCTGTAAATGAGTACTACGGAGTCACCTAGTGCAG”, which binding signal is on record?
Answer: 5180 fluorescence intensity (a.u.)

Question: Which binding signal does the source give for “GGGAGAATTAATGGTTAGGATTTAAAGATGGGTGGGAAATCGGAGTCACCTAGTGCAG” here?
Answer: 3670 ± 105 fluorescence intensity (a.u.)

Question: “TCTATTGGGGCGGGGTGTGGTAAGGAAATTACAGTTTGCACGGAGTCACCTAGTGCAG” was tested. Which binding signal did it give?
Answer: 4930 fluorescence intensity (a.u.)

Question: With “AAACAAATTAAAGCCCCACCACCACCACGCCACGCGACGCCGGAGTCACCTAGTGCAG” as the sequence, how does the binding signal read?
Answer: 3360 fluorescence intensity (a.u.)

Question: “GCGCCATGATTTGATAATGTGGTACTATAATAACATTTGCCGGAGTCACCTAGTGCAG” was tested. Which binding signal did it give?
Answer: 21200 fluorescence intensity (a.u.)

Question: With “ATAAAATCTAGAGATTCTAATTATATCGAAACATATTGGTCGGAGTCACCTAGTGCAG” as the sequence, how does the binding signal read?
Answer: 4430 fluorescence intensity (a.u.)

Question: How did the binding signal turn out when “ATTTGATTAAAATACTTCCTATGCATTCATAATGCTCTGACGGAGTCACCTAGTGCAG” was run?
Answer: 12400 fluorescence intensity (a.u.)

Question: For “ATTCAATTAATTAGGTGTACTCTTCAACATGCAAAATATGCGGAGTCACCTAGTGCAG”, which binding signal is on record?
Answer: 38500 fluorescence intensity (a.u.)

Question: For “ATTCAACATGATTATTATATGGTCATTCTTGAACTGCAAGCGGAGTCACCTAGTGCAG”, which binding signal is on record?
Answer: 11100 fluorescence intensity (a.u.)

Question: With “TACCAATCAGGCTTCAAGTTGATGCCATATCAAGATTGTCCGGAGTCACCTAGTGCAG” as the sequence, how does the binding signal read?
Answer: 12500 fluorescence intensity (a.u.)

Question: With “AATTAATTAGCTAGGTTACTTATGGTGCAACATGTCTGACCGGAGTCACCTAGTGCAG” as the sequence, how does the binding signal read?
Answer: 29400 fluorescence intensity (a.u.)

Question: With “AGAAAATCATTAGATCATAATCAATTAAGTTTTAATTATTCGGAGTCACCTAGTGCAG” as the sequence, how does the binding signal read?
Answer: 7530 fluorescence intensity (a.u.)

Question: How did the binding signal turn out when “ATATTTTGATTGAATATGACGTATCCTAGTAATTTGGACCCGGAGTCACCTAGTGCAG” was run?
Answer: 59700 fluorescence intensity (a.u.)

Question: With “AGTGGTTGATTTCATCAGTGGGAAATGCATATCGGATCTTCGGAGTCACCTAGTGCAG” as the sequence, how does the binding signal read?
Answer: 3260 fluorescence intensity (a.u.)

Question: How did the binding signal turn out when “CCCTATAATTTACCATAATTTATTCAAACAGCTGGTACCTCGGAGTCACCTAGTGCAG” was run?
Answer: 25800 fluorescence intensity (a.u.)

Question: “GGTGAATGGAACAATCAACACAACAGTGAACTGTGGAGTCCGGAGTCACCTAGTGCAG” was tested. Which binding signal did it give?
Answer: 24200 fluorescence intensity (a.u.)

Question: How did the binding signal turn out when “ATGACTGATTTATGACAGCCGTGCATGTGTATTTGTGTACCGGAGTCACCTAGTGCAG” was run?
Answer: 55500 fluorescence intensity (a.u.)

Question: Which binding signal does the source give for “ATTATTCCCAATCAAATTAACACATAACGCACAGACTCAGCGGAGTCACCTAGTGCAG” here?
Answer: 25900 fluorescence intensity (a.u.)

Question: “TTGATTGATGGGTAGTAAGGAAACCTTTTGAATGAGTGGTCGGAGTCACCTAGTGCAG” was tested. Which binding signal did it give?
Answer: 64700 fluorescence intensity (a.u.)

Question: How did the binding signal turn out when “CCAAAATTTTACACTCTGTCACATCGAATGTTTGGACACACGGAGTCACCTAGTGCAG” was run?
Answer: 4950 fluorescence intensity (a.u.)

Question: Which binding signal does the source give for “CCTATAATAAATTATAGGTGCCGGTTTATGTAAAATACCGCGGAGTCACCTAGTGCAG” here?
Answer: 4200 fluorescence intensity (a.u.)

Question: With “TTCAATCACCGTTCACATAATTCATTTTGCAGATCCCCATCGGAGTCACCTAGTGCAG” as the sequence, how does the binding signal read?
Answer: 19000 fluorescence intensity (a.u.)

Question: For “ATTCAATGTGATTAAATACTTTGGTTGCTGTCAAAAGTGACGGAGTCACCTAGTGCAG”, which binding signal is on record?
Answer: 3150 fluorescence intensity (a.u.)

Question: For “CACGGCATGATTGGGACGTGGGCCCCACCTGCAGCGACTGCGGAGTCACCTAGTGCAG”, which binding signal is on record?
Answer: 8990 fluorescence intensity (a.u.)

Question: “AGTAAATAATTTCAAATGAAACAATTATTAATAACAAAGTCGGAGTCACCTAGTGCAG” was tested. Which binding signal did it give?
Answer: 4940 fluorescence intensity (a.u.)

Question: For “AAATAATTAGCACAACAGACACGGATTGCTGAGGTTTGATCGGAGTCACCTAGTGCAG”, which binding signal is on record?
Answer: 34600 fluorescence intensity (a.u.)

Question: With “TGGGTAATCACAGGTGTGAATTTGCCGGGAAGGTTGAAAGCGGAGTCACCTAGTGCAG” as the sequence, how does the binding signal read?
Answer: 4830 fluorescence intensity (a.u.)

Question: Which binding signal does the source give for “ATTAATATGGATTGGAGGGATCGGAGGGAGTAGGTGCATGCGGAGTCACCTAGTGCAG” here?
Answer: 3540 fluorescence intensity (a.u.)

Question: For “TTTAATGAAATTAATTTGATATTTTAAATGTTACTAAAACCGGAGTCACCTAGTGCAG”, which binding signal is on record?
Answer: 19900 fluorescence intensity (a.u.)

Question: With “ACAAAATTGAACACAAGTCGTTATGCCTTACTGCTATAAACGGAGTCACCTAGTGCAG” as the sequence, how does the binding signal read?
Answer: 9320 fluorescence intensity (a.u.)

Question: “TTAAAATAGTTAATACTCAATTAATCATGCGCTAATGGTACGGAGTCACCTAGTGCAG” was tested. Which binding signal did it give?
Answer: 11000 fluorescence intensity (a.u.)

Question: Which binding signal does the source give for “TTGATTTCTTTACTCCTTGATTTAGTTGCTTGTCTTCTACCGGAGTCACCTAGTGCAG” here?
Answer: 6150 fluorescence intensity (a.u.)

Question: “AATCAATTATCCCAAATCGTATTTCATCGATGCAGATTAACGGAGTCACCTAGTGCAG” was tested. Which binding signal did it give?
Answer: 16500 fluorescence intensity (a.u.)

Question: How did the binding signal turn out when “GCACTAATAGAATTATGGTTTTACATGTCCAACCTTAATACGGAGTCACCTAGTGCAG” was run?
Answer: 13800 fluorescence intensity (a.u.)

Question: With “GCCTTAACTTTGTGATCATATCTTCATCTTCATTAGGCCTCGGAGTCACCTAGTGCAG” as the sequence, how does the binding signal read?
Answer: 4300 fluorescence intensity (a.u.)
